Source: paper PMC4336329 (PLoS ONE, 2015)
Screen size: about 310,000 compounds; about 2,200 (0.71%) showed an effect of 50% or more. Effects have a minus sign here. This is one part of the list.

Molecular target: human ether-à-go-go-related gene (hERG) potassium channel (human, UniProt Q12809)
Assay: primary screen, population patch clamp on CHO cells stably expressing hERG

Chain of human ether-à-go-go-related gene (hERG) potassium channel (Q12809 whole entry, looked up): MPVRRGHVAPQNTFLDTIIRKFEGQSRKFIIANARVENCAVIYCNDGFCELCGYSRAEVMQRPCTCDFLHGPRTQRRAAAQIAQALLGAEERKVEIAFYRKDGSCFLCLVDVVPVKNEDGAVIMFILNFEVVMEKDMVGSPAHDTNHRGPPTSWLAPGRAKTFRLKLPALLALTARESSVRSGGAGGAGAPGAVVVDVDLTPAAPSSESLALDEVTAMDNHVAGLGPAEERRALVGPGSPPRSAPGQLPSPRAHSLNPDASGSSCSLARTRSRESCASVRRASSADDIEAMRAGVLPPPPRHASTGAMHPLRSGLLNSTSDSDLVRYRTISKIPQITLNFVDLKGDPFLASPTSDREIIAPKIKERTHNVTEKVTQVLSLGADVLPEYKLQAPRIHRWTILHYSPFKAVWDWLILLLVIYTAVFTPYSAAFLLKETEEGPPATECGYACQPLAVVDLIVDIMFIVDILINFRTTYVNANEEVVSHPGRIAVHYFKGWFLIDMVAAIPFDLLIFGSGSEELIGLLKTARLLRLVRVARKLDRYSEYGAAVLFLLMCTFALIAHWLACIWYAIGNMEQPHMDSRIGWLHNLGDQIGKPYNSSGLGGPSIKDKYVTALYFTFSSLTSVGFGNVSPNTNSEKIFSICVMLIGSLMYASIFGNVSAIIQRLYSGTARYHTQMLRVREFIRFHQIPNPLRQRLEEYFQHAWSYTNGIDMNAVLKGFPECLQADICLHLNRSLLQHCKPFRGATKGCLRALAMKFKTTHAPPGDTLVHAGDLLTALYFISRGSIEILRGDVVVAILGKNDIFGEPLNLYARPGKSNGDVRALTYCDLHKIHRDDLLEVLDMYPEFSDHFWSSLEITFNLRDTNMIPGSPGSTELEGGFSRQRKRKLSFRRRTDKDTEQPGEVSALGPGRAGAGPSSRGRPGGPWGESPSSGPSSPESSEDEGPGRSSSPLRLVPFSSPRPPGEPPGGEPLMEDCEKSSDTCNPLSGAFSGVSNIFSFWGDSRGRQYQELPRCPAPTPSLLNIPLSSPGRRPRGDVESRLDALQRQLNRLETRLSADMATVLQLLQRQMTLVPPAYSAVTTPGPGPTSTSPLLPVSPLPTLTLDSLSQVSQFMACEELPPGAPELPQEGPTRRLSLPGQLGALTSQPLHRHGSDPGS

Row | SMILES | hERG current change (%, negative = inhibition) at 1uM
1 | CC(=O)Nc1sc(C)c(C)c1C(=O)OCC(=O)N(C)C1CCS(=O)(=O)C1 (stereo not drawn) | -3.42%
2 | O=C(NCCc1nc2ccccc2[nH]1)/C(=C/c1ccco1)NC(=O)c1ccccc1Br | 1.53%
3 | COc1cc(NC(=O)c2ccc(Br)cc2)c(OC)cc1NC(=O)c1ccccc1 | 18.2%
4 | CC(Sc1nc(-c2ccccc2)nc2c1COC(C)(C)C2)C(=O)N1CCOCC1 (stereo not drawn) | -18.2%
5 | O=C(OCC(=O)N1CCN(C(=O)c2ccco2)CC1)c1sc2ccccc2c1Cl | 9.18%
6 | O=C(NC1CCS(=O)(=O)C1)c1ccc2c(c1)OCO2 (stereo not drawn) | 5.35%
7 | Cc1c(C=O)c2ccccc2n1CC(=O)N1CCc2ccccc2C1 | 13.6%
8 | COCCn1c(-c2ccc(Cl)cc2)cnc1SCC(=O)NCCc1ccc(OC)c(OC)c1 | -1.64%
9 | Cc1[nH]c2ccc(C(=O)N3CCN(c4ccccc4Cl)CC3)cc2c1C | 13.2%
10 | Cc1ccc(CNC(=O)CN2C(=O)COc3ccc(C)cc32)cc1 | 6.04%
11 | COc1ccc(CNC(=O)COC(=O)Cc2ccsc2)cc1 | 3.17%
12 | Cc1ccc(C(C2=C(O)CC(C)(C)CC2=O)C2C(=O)CC(C)(C)CC2=O)o1 (stereo not drawn) | 16.3%
13 | COc1ccc2cc(C(=O)N3CCN(c4ccccc4OC)CC3)[nH]c2c1 | 17%
14 | Cc1nc2ccccn2c1C(=O)N=Nc1c(O)n(CCC(C)C)c2ccccc12 | 11.1%
15 | COC(=O)c1ccccc1NC(=O)c1cc(C2CC2)on1 | 5.84%
16 | O=C(O)COc1ccc(-c2nccc(-c3ccccn3)n2)cc1 | 15.2%
17 | Cc1ccc(C(=O)O/N=C(\N)c2ccccn2)c(C)c1 | 12%
18 | COCCCNc1oc(-c2ccccc2Cl)nc1C#N | 9.35%
19 | O=C(Cn1cc(C(=O)c2ccco2)c2ccccc21)NCc1ccco1 | -1.17%
20 | Cc1cc(C)nc(SCc2cc(=O)c(OC(=O)c3ccc(Cl)c([N+](=O)[O-])c3)co2)n1 | 10.7%
21 | COc1ccc(-c2cc(C(=O)Nc3c(C)n(C)n(-c4ccccc4)c3=O)no2)cc1OC | 19.8%
22 | Cc1cccc(NC(=O)c2ccc(Cl)c(S(=O)(=O)N3CCc4ccccc43)c2)n1 | 1.9%
23 | Cc1cc(N(C)C)c(C#N)c(N2CCOCC2)n1 | 15.4%

Row | SMILES | hERG current change (%, negative = inhibition) at 1uM
24 | CCc1cccc(CC)c1NC(=O)c1cc(CN2C(=O)c3ccccc3C2=O)ccc1OC | 3.6%
25 | O=S(=O)(c1ccc(Cl)s1)N1CCC(Cc2ccccc2)CC1 | -1.56%
26 | CC(=O)N1c2ccc(S(=O)(=O)N3CCCC3C(=O)NCc3ccccc3Cl)cc2CC1C (stereo not drawn) | -14.7%
27 | COc1ccc(CCN(C)C(=O)CSc2nnnn2C)cc1OC | 17.4%
28 | c1ccc2c(c1)nc(Nc1ccc(N3CCCCC3)cc1)c1nncn12 | 4.49%
29 | O=C(O)CC1NC(=S)N(c2ccccc2)C1=O (stereo not drawn) | 7.93%
30 | Cc1c(C)[n+](=O)c2c(n1[O-])CCCCC2 | 4.34%
31 | O=C(Nc1ccccn1)NC(C(F)(F)F)C(F)(F)F | 8.29%
32 | O=C(NCCCN1CCCC1=O)c1ccc(Cl)c(Cl)c1 | 10%
33 | COc1ccccc1C/C(N)=N/OC(=O)c1ccc(C)c([N+](=O)[O-])c1 | -0.487%
34 | Nc1ccc(-c2ncc(-c3ccccc3)o2)cc1 | 14.1%
35 | COc1ccc(N2CC(C(=O)N[C@@H](C)C(=O)NC3CCCC3)CC2=O)cc1 (stereo partly drawn) | 6.07%
36 | CCN1c2nc3ccccn3c(=O)c2CC2(C(=O)N(C)C(=O)N(C)C2=O)C1C (stereo not drawn) | 10.1%
37 | CCOc1cccc(Oc2ccc(C(F)(F)F)cn2)c1 | -7.1%
38 | CC(C)c1ccc(OCC(=O)N2CCCN(C)CC2)cc1 | 6.08%
39 | CCC(=O)N1c2ccc(S(=O)(=O)NCCc3ccc(C)cc3)cc2CC1C (stereo not drawn) | 14.8%
40 | O=C(NCCCN1CCOCC1)C(=O)NCC1OCCN1S(=O)(=O)c1cc(F)ccc1F (stereo not drawn) | 4.55%
41 | CCOc1ccc(Cl)cc1S(=O)(=O)N1CCC(C(=O)NCc2cccnc2)CC1 | 0.0673%
42 | Cc1ccccc1CS(=O)(=O)CCC(=O)NCCCN1CCN(c2ccccc2F)CC1 | -25.7%
43 | COc1ccc(OC)c2c1sc(=NC(=O)C(C)(C)C)n2C | 12.3%
44 | Cl.Clc1ccccc1C(c1nnnn1Cc1ccco1)N1CCN(Cc2ccco2)CC1 (stereo not drawn) | -4.76%
45 | CCCCCCCC(=O)Nc1cc(C(=O)NCc2ccc(C)cc2)ccc1N1CCC2(CC1)CC(c1cccc(Br)c1)=NO2 | 5.58%
46 | CN(C(=O)CSc1nc(O)cc(=O)n1-c1ccccc1F)c1ccccc1 | 12.2%

Row | SMILES | hERG current change (%, negative = inhibition) at 1uM
47 | Fc1ccc(Sc2cc(Cl)c(-c3ccccc3)nn2)cc1 | -0.417%
48 | NC(=O)C1CCN(CC(=O)N2c3ccccc3CCc3ccccc32)CC1 | 16.6%
49 | COc1cccc(-c2ccc(NC(=O)C3CCCN(Cc4cc(C)[nH]n4)C3)cc2)c1 (stereo not drawn) | 8.91%
50 | O=C(N/N=C/c1cccc2ccccc12)C(=O)N1CCCC1 | 17%
51 | O=C(NC1CCCc2ccccc21)c1ccc(CNc2c(N3CCOCC3)c(=O)c2=O)cc1 (stereo not drawn) | 8.17%
52 | O=C(CSc1nc2cc(Cl)ccc2o1)c1cccs1 | 5.19%
53 | CC1Oc2ccccc2N(Cc2cccc(F)c2)C1=O (stereo not drawn) | 9%
54 | COc1cccc(-c2cc(C(F)(F)F)n3ncc(C(=O)NCC4CCCO4)c3n2)c1 (stereo not drawn) | -4.43%
55 | Cc1ccc2c(c1)NC(=O)C(N1CCOCC1)(C(F)(F)F)O2 (stereo not drawn) | 15.3%
56 | C=CCN1C(=O)C(CC(=O)NCC)SC1=Nc1ccccc1OC (stereo not drawn) | 16.5%
57 | COc1ccc(C2=NOC(CNC(=O)c3ccccc3Br)C2)c(OC)c1 (stereo not drawn) | 11.4%
58 | CC(C)CCCn1c(O)c(/C=C2/C=CC=N2)c(=O)[nH]c1=O | 14.1%
59 | COc1ccc(OC)c(C2NC(=S)NC3=C2N2CCC3CC2)c1 (stereo not drawn) | 12.3%
60 | COc1ccccc1N1CCN(S(=O)(=O)c2cn(C)c(=O)n(C)c2=O)CC1 | 13.3%
61 | C=CCn1c(C)cc(-c2csc(N)n2)c1C.Cl | 4%
62 | CN(C(=O)c1cccnc1)c1nnc(-c2cnccn2)s1 | 9.84%
63 | CCN1CCN(CC(=O)Nc2cccc(C)c2)C(=O)C1=O | 14.7%
64 | CCN(C(=O)C(C)Cl)c1ccccc1 (stereo not drawn) | 12.8%
65 | N#Cc1c(N)nc2c(c1N)CC(COc1ccccc1)O2 (stereo not drawn) | 2.9%
66 | COc1ccccc1OCCn1c(SCC(N)=O)nc2ccccc21 | 10.5%
67 | O=C(NCCSCc1ccco1)Nc1cc(Cl)cc(Cl)c1 | 16.8%
68 | Clc1cccc(Cl)c1/C=N/Nc1c(Cl)cncc1Cl | 5.36%
69 | O=C(Nc1cccc2nsnc12)c1ccc(F)cc1 | 0.596%

Row | SMILES | hERG current change (%, negative = inhibition) at 1uM
70 | O=C(CSCCS(=O)(=O)c1ccc(Cl)cc1)Nc1ccccc1 | 8.86%
71 | COc1ccc(NC(=O)c2cc(S(=O)(=O)N3CCCC3)c[nH]2)cc1 | 17.5%
72 | CC(C)(C)NC(=O)CSc1nnc(CN2CCCCCC2=O)n1-c1ccccn1 | 6.12%
73 | Cc1ccc(C(=O)NCC(=O)OCC(=O)NC(C)c2ccccc2)s1 (stereo not drawn) | 2.94%
74 | COc1ccc(CCN2CC(C(=O)NCc3ccccc3)CCC2=O)cc1 (stereo not drawn) | 10.7%
75 | O=C(CSc1ncnc2sc3c(c12)CCC3)NCC1CCCO1 (stereo not drawn) | 14.1%
76 | COc1cccc(OC)c1-c1nn2c(-c3ccco3)nnc2s1 | 3.07%
77 | CN(CC(=O)Nc1ccccc1Br)C(=O)c1cccc([N+](=O)[O-])c1 | 0.512%
78 | COCCNC(=O)c1onc(CSc2ccccc2)c1C(=O)NCCOC | 10.5%
79 | O=C(N/N=C1\CC2CC=CC12)c1ccc(O)cc1 (stereo not drawn) | 10.2%
80 | CCOC(=O)N1CCC(NC(=O)CSCc2nc(-c3cccc(OC)c3)oc2C)CC1 | -4.02%
81 | Cc1ccc(-c2nc3ccccc3c(=O)n2CCN2CCOCC2)cc1 | -4.88%
82 | O=C(NCCc1ccc(Cl)cc1)C1CCN(S(=O)(=O)c2ccc(Br)s2)CC1 | 3.54%
83 | O=C(COc1ccc(C(=S)N2CCCC2)cc1)Nc1ccccc1C(F)(F)F | 4.01%
84 | CCOC(=O)c1ccc(NC(=O)NNC(=O)CCc2ccc(OC)cc2)cc1 | 16.8%
85 | NS(=O)(=O)c1ccc(CNS(=O)(=O)c2ccc3c(c2)OCCO3)cc1 | 4.59%
86 | S=c1nc[nH]c2c1cnn2Cc1ccccc1 | 17.9%
87 | O=C(Cc1ccccc1)Nc1ccccc1Sc1ccccc1 | 7.77%
88 | COc1ccc(CNc2cc(C)nc3ccc(OC)cc23)cc1 | -18.9%
89 | Clc1ccc(N2CCN(c3ncnc4c3oc3ccccc34)CC2)cc1 | 12.2%
90 | N#Cc1c(-c2ccco2)cc(-c2cccnc2)nc1N | 7.62%
